The values below come from PubChem BioAssay AID342 (DTP/NCI, 2004).

The test system of the assay is Swiss mice, Sarcoma 180 sc, mean tumor weight T/C. The assay is described as follows: NCI In Vivo Anticancer Drug Screen. Data for tumor model Sarcoma 180 (subcutaneous) in Swiss mice. Conditions: endpoint: mean tumor weight, higher = larger tumour. The method, boiled down: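 T/C ratio: treated over vehicle-treated controls, measuring survival or tumor size in transplanted-tumor mice.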

The mark [1] stands for this setting: dose: 2.0 mg/kg/injection, schedule: Q01DX007 (ip), vehicle: carboxymethylcellulose (CMC).

Structures are written as SMILES. Some entries of the source have several records that differ or are many. The other results are left out here. An entry can have further records. The records of an entry repeat one measurement in other runs, samples, wells, individuals or studies. What stands in brackets tells the records apart. Letters count within one entry.

As to `CCC(c1ccc(O)cc1)C(CC)c1ccc(OC)cc1` (stereo not given), for the setting “dose: 0.65 mg/kg/injection, schedule: Q#A X014 (sc), vehicle: steriod suspending solution”, the T/C was 44 % of control and 99 % of control.

For `CC1OC2CC(=O)OC2C2=C1C(=O)c1c(O)c3c(c(O)c1C2=O)C1CC(O)C3(O)C(C)O1` (stereo not given), the T/C (dose: 3.2 mg/kg/injection, schedule: Q01DX007 (ip), vehicle: saline) is 64 % of control and 95 % of control. Take `CC(=O)[C@H]1CC[C@H]2[C@@H]3C[C@H](F)C4=CC(=O)CC[C@]4(C)[C@@]3(F)[C@@H](O)C[C@]12C`: the T/C runs as follows: (dose: 56.0 mg/kg/injection, schedule: Q01DX007 (sc), vehicle: steriod suspending solution) 42 % of control and 83 % of control; (dose: 84.0 mg/kg/injection, schedule: Q01DX007 (sc), vehicle: steriod suspending solution) 36 % of control and 72 % of control; (dose: 125.0 mg/kg/injection, schedule: Q01DX007 (sc), vehicle: steriod suspending solution) 24 % of control, 32 % of control, 56 % of control; (dose: 188.0 mg/kg/injection, schedule: Q01DX007 (sc), vehicle: steriod suspending solution) 26 % of control, 32 % of control, 72 % of control. `O=C(c1ccccc1)C(C(=O)c1ccccc1)C(=O)c1ccccc1.O=C(c1ccccc1)C(C(=O)c1ccccc1)C(=O)c1ccccc1.[Cu]`: under “dose: 125.0 mg/kg/injection, schedule: Q01DX007 (ip), vehicle: carboxymethylcellulose (CMC)”, the T/C is reported as 39 % of control, 80 % of control, 107 % of control.

Take `CCCCOP(=S)(N1CC1)N1CC1`: the T/C runs as follows: (dose: 3.3 mg/kg/injection, schedule: Q#A X014 (ip), vehicle: saline) 20 % of control and 53 % of control; (dose: 5.0 mg/kg/injection, schedule: Q#A X014 (ip), vehicle: saline) 22 % of control and 53 % of control. In the case of `CCSc1nc(Cl)cc(Sc2nc(N)nc3nc[nH]c23)n1`, the T/C (dose: 36.0 mg/kg/injection, schedule: Q01DX007 (ip), vehicle: other) is 35 % of control and 75 % of control.

Take `C[C@]12C=CC(=O)C=C1CC[C@@H]1[C@@H]2[C@@H](O)C[C@@]2(C)[C@H]1CC[C@]2(O)C(=O)CF`: the T/C (dose: 30.0 mg/kg/injection, schedule: Q01DX007 (sc), vehicle: steriod suspending solution) is 40 % of control, 49 % of control, 81 % of control. Regarding `C=CCCCCCCCCC(=O)O`, the T/C (dose: 62.5 mg/kg/injection, schedule: Q01DX007 (ip), vehicle: saline) was 79 % of control and 120 % of control. On to `C[C@@H]1C[C@@H]([C@H](O)CC2CC(=O)NC(=O)C2)C(=O)[C@@H](C)C1`, for which the T/C by setting is: (dose: 1.5 mg/kg/injection, schedule: Q#A X014 (ip), vehicle: carboxymethylcellulose (CMC)) 78 % of control and 111 % of control; (dose: 6.0 mg/kg/injection, schedule: Q#A X014 (ip), vehicle: carboxymethylcellulose (CMC)) 51 % of control and 84 % of control; (dose: 16.0 mg/kg/injection, schedule: Q01DX007 (ip), vehicle: carboxymethylcellulose (CMC)) 48 % of control, 109 % of control, 122 % of control. On to `COc1cccc2c1C(=O)c1c(O)c3c(c(O)c1C2=O)C[C@@](O)(C(C)=O)C[C@@H]3OC1CC(N)C(O)C(C)O1` (stereo not given in full), for which the T/C (dose: 3.0 mg/kg/injection, schedule: Q01DX007 (sc), vehicle: steriod suspending solution) was 42 % of control [sample A] and 85 % of control [sample B]. `C=CCNc1ccc(C)cc1`: the T/C (dose: 45.0 mg/kg/injection, schedule: Q01DX007 (ip), vehicle: carboxymethylcellulose (CMC)) was 44 % of control and 92 % of control; the T/C (dose: 70.0 mg/kg/injection, schedule: Q01DX007 (ip), vehicle: carboxymethylcellulose (CMC)) is 26 % of control and 118 % of control. On to `O=C(O)c1cc(I)cc(I)c1O.OC1CCCC2CCC[N-]C12.[Cu+]`, for which the T/C runs as follows: (dose: 1.0 mg/kg/injection, schedule: Q01DX007 (ip), vehicle: carboxymethylcellulose (CMC)) 47 % of control and 96 % of control; under setting [1], 50 % of control and 76 % of control; (dose: 4.0 mg/kg/injection, schedule: Q01DX007 (ip), vehicle: carboxymethylcellulose (CMC)) 51 % of control and 90 % of control. Take `CCC(=O)OCC1OC(n2cnc3c(=S)nc(N)[nH]c32)C(OC(=O)CC)C1OC(=O)CC` (stereo not given): the T/C reads like this: (dose: 3.0 mg/kg/injection, schedule: Q01DX007 (ip), vehicle: carboxymethylcellulose (CMC)) 51 % of control and 92 % of control; (dose: 10.0 mg/kg/injection, schedule: Q01DX007 (ip), vehicle: carboxymethylcellulose (CMC)) 11 % of control, 50 % of control, 56 % of control. Consider `CN(Cc1cnc2nc(N)nc(N)c2n1)c1ccc(C(=O)N[C@@H](CCC(=O)O)C(=O)O)cc1`, for which the T/C is, setting by setting: (dose: 0.5 mg/kg/injection, schedule: Q01DX007 (ip), vehicle: water) 19 % of control, 21 % of control, 46 % of control; under setting [1], 43 % of control and 93 % of control.
